For this test, the target named is human κ opioid receptor (KOR) (Homo sapiens, UniProt P41145). Nature of the test: cell-based. Also on record: host or cells: cAMP Hunter CHO-K1. The conditions noted are these: for KOR antagonism Imax (degree of antagonism): versus EC90 of U50,488H, normalized to nor-BNI, mean ± SEM.

By IC50 is commonly meant the midpoint of a concentration-inhibition curve.

Sequence of UniProt P41145 (P41145 whole entry): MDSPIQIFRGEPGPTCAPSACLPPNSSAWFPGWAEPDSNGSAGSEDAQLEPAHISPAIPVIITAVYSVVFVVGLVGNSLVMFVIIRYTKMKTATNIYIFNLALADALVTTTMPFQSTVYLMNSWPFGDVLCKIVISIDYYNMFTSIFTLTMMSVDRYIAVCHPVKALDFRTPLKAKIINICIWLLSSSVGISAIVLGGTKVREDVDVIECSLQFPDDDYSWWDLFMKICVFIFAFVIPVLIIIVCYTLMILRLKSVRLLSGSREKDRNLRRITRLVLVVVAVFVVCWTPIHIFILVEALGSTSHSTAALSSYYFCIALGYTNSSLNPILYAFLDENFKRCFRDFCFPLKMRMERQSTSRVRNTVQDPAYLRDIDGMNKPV

As to `CCC(=O)O[C@@]12CCC(=O)[C@@H]3Oc4c(O)ccc5c4[C@@]31CCN(CC1CC1)[C@@H]2C5` [Compound 14], the IC50 was found to be 8.15 ± 1.1 nM and the “KOR antagonism Imax (degree of antagonism)” value came out at 49.27 ± 11.54%.
In the same order, the values of `CCCO[C@@]12CCC(=O)[C@@H]3Oc4c(O)ccc5c4[C@@]31CCN(CC1CC1)[C@@H]2C5` [Compound 20] are 8.7 ± 1.89 nM and 46.68 ± 2.95%.
Taken in the same sequence, the figures for `C=CCO[C@@]12CCC(=O)[C@@H]3Oc4c(O)ccc5c4[C@@]31CCN(CC1CC1)[C@@H]2C5` [Compound 21] were 10.7 ± 4.48 nM and 62.72 ± 18.41%.
In the same order, the values of `O=C1CC[C@@]2(OC[C@H](O)CO)[C@H]3Cc4ccc(O)c5c4[C@@]2(CCN3CC2CC2)[C@H]1O5` [Compound 22] are 33.7 ± 3.77 nM and 84.97 ± 6.39%.
Regarding `C=CCOC12CCC(=C)C3Oc4c(O)ccc5c4C31CCN(CC1CC1)C2C5` (centres unmarked) [Compound 28], 8.54 ± 3.54 nM corresponded to half-maximal inhibition (IC50) and the “KOR antagonism Imax (degree of antagonism)” value came to 47.32 ± 12.19%.
In the same order, the values of `C=C1CC[C@@]2(OCCC)[C@H]3Cc4ccc(O)c5c4[C@@]2(CCN3CC2CC2)[C@H]1O5` [Compound 29] are 4.49 ± 2.02 nM and 46.84 ± 16.34%.
In the same order, the values of `C=C1CC[C@@]2(OC[C@H](O)CO)[C@H]3Cc4ccc(O)c5c4[C@@]2(CCN3CC2CC2)[C@H]1O5` [Compound 30] are 8.75 ± 2.05 nM and 89.12 ± 0.69%.

The values are drawn from paper PMC8427951, “Design, synthesis, and preliminary evaluation of a potential synthetic opioid rescue agent” (Journal of Biomedical Science, 2021).
